From ChEMBL document CHEMBL4888484, “Replenishing the malaria drug discovery pipeline: Screening and hit evaluation of the MMV Hit Generation Library 1 (HGL1) against asexual blood stage Plasmodium falciparum ,using a nano luciferase reporter read-out” (2022) come the findings set out here.

Structures are written as SMILES. Out of some 150,000 compounds screened, about 540 (0.36%) showed an effect of 50% or more. The list shows a part of the results.

The subject of this test is Plasmodium falciparum. Briefly: Primary screen in NF54 nanoGlo assay, in single point, at 2uM, 72h; a lower Z score goes with more inhibition. The test is classed as functional, Erythrocyte. As to conditions: timepoint 72 hour.
As a reminder, the % Inhibition is the change of the read-out against control, counted positive when it falls. Take `CC[C@@H](C(=O)N1CCC2(CC1)C(=O)N(CC(=O)N(C)C)CN2c1ccccc1)c1ccccc1`: the “% Inhibition” value is listed as 1% and the Z score is -0.14.
Turning to `COc1ccc(CN2CCN(C(=O)CN3CCOCC3)CC2)c(Br)c1OC`, the “% Inhibition” value stood at 1% and the Z score was -0.13.
Taken in the same sequence, the figures for `CC[C@H](NC(=O)CCC(=O)N(C)C)c1ccc(C)cn1` were -15% and 1.59.
Taken in the same sequence, the figures for `COc1nn(C)cc1C(=O)N(Cc1cccs1)Cc1cccn1C` were -14% and 1.57.
Taken in the same sequence, the figures for `COCCCN(C[C@@H]1CCCN2CCCC[C@H]12)C(=O)C1CC(=O)N(c2n[nH]c3ccccc23)C1` (some centres undefined) were -19% and 2.4.
With `COc1ccc(CCNC(=O)[C@@H](NS(C)(=O)=O)C(C)(C)C)cc1OC`, the “% Inhibition” value was determined as 26% and the Z score was -2.92.
Taken in the same sequence, the figures for `CN1CCCN(Cc2ccc3c(c2)CCO3)CC1=O` were -6% and 0.76.
For `COc1ccc(Cl)cc1C(=O)N1CCCN(c2nnc3ccccn23)CC1`, in that order: 1% and -0.23.
As to `N#Cc1c(N)nc2c(c1-c1cnc(N3CCCC3)s1)C[C@@H](N)CC2`, the “% Inhibition” value is reported as -3% and the Z score is recorded as 0.43.
For `CN(C)c1ccnc(NC(=O)NCc2ccco2)c1`, in that order: -14% and 1.17.
Taken in the same sequence, the figures for `Cc1c(C(=O)N2CC[C@H](Nc3ncccn3)[C@@H](O)C2)cnc2ccnn12` were -7% and 1.31.
Taken in the same sequence, the figures for `C[C@H](NC(=O)NOCc1ccc(C(F)(F)F)cc1)c1nc[nH]n1` were -16% and 2.58.
`CCc1oc2c(NC(=O)N(C)[C@@H](C)CC(=O)NC)cccc2c1C`: the “% Inhibition” value is on record as -12% and the Z score is given as 1.61.
Taken in the same sequence, the figures for `CC1CCC(NC(=O)[C@]2(C)CCC(=O)N2CCc2ccc(Cl)cc2)CC1` (some centres undefined) were -11% and 1.86.
Taken in the same sequence, the figures for `CC[C@H](NC(=O)Cc1cn(C)c2ncccc12)c1cccs1` were -1% and 0.22.
Regarding `CC(=O)N[C@@H](C)C(=O)Nc1nc2cc3c(cc2s1)OCCO3`, the “% Inhibition” value is on record as -7% and the Z score is 0.96.
For `O=C(NCc1cncc(C2CC2)c1)Nc1nccs1`, in that order: -9% and 1.04.
Taken in the same sequence, the figures for `Cn1c(=O)c2c(=O)c3nc[nH]c3[nH]c2n(C)c1=O` were -4% and 0.55.
For `Cc1n[nH]c(C)c1CCCN(C)C[C@H]1CCOC(C)(C)C1`, in that order: -18% and 2.27.
Take `COc1cccc(C(=O)NCC(=O)N[C@H]2CCCOc3c(F)cccc32)c1`: the “% Inhibition” value is on record as -12% and the Z score is 2.11.
In the case of `O=C1[C@@H]2C[C@@H](CN2C2CCC2)Oc2ccccc2N1Cc1ccccn1`, the “% Inhibition” value is -2% and the Z score turned out to be 0.34.
Taken in the same sequence, the figures for `O=C(C1CCN(S(=O)(=O)Cc2ccccc2F)CC1)N(Cc1ccccc1)Cc1ccccc1` were 0% and 0.09.
For `NC(=O)CCNC(=O)C[C@H]1C(=O)NCCN1Cc1ccc2ccccc2c1`, in that order: -17% and 2.48.
Taken in the same sequence, the figures for `O=C(CCCOc1ccccc1)NCCN1CCNC1=O` were -28% and 2.7.
Take `Cc1ccc(NC(=O)[C@H]2CCCN(S(=O)(=O)c3cc(-c4noc(C(C)C)n4)sc3C)C2)cc1C`: the “% Inhibition” value is listed as -18% and the Z score worked out at 1.78.
Turning to `CCOc1ccc(N[C@@H](C)c2nc3ccccc3c(=O)[nH]2)cc1C`, the “% Inhibition” value is listed as -14% and the Z score was determined as 1.28.
Regarding `Cc1noc(COC(=O)c2cc(-c3ccc4c(c3)OCCO4)nc3ccccc23)n1`, the “% Inhibition” value is recorded as -8% and the Z score came out at 0.77.
For `CC(C)CCC(CC(=O)NCCCN(C)C)C1CCOC(C)(C)C1` (centres undefined), the “% Inhibition” value is -3% and the Z score was determined as 0.43.
Taken in the same sequence, the figures for `Cc1ccc(S(=O)(=O)Nc2ccc(C3CC3)cc2)cc1` were 31% and -3.5.
For `Cc1ccc(NC(=O)c2csc(-c3ccc(N4CCOCC4)nc3)n2)cc1F`, in that order: -1% and 0.12.
Taken in the same sequence, the figures for `COc1ccc(NC(=O)CCCc2nc(-c3cc4ccc(C)cc4nc3O)no2)cc1` were -17% and 3.34.
As for `Cc1nc(C)c([C@H](C)NS(=O)(=O)N2CCc3ccccc3C2)s1`, the “% Inhibition” value amounted to 1% and the Z score was -0.08.
For `Cn1cc(-c2cc3n(n2)CCCN3C(=O)CCC(=O)NCCCN2CCCCC2)c2ccccc21`, in that order: -8% and 1.07.
`CCc1ccc(C(=O)N2CCC3(CC2)OC[C@@H](C(=O)NCc2ccccn2)N3C(=O)c2ccc(F)cc2)cc1`: the “% Inhibition” value is given as -13% and the Z score stood at 1.31.
In the case of `COc1ccccc1C(=O)Nc1c(-c2cccc3ccccc23)c(=O)c2ccccc2n1C`, the “% Inhibition” value is -20% and the Z score was 2.75.
Taken in the same sequence, the figures for `COc1cccc(N2C(=O)N[C@@H]3CCN(S(=O)(=O)c4cccs4)[C@@H]3C2=O)c1` were -5% and 0.77.
For `O=C(O)c1cn(C[C@H](O)c2ccccc2)cc(Oc2ccccc2)c1=O`, the “% Inhibition” value was -5% and the Z score came out at 0.8.
For `Cc1ccc(C2=NNC(=O)C3CCCCC23)cc1` (centres undefined), in that order: -4% and 0.75.
Taken in the same sequence, the figures for `CCN(Cc1cccs1)C(=O)c1cc2c(cc1O)CCCC2` were 7% and -1.28.
For the compound `CC(C)(C)OC(=O)NCc1cccc(NCc2cc(C#N)cs2)c1`, the “% Inhibition” value is -15% and the Z score came out at 2.
Taken in the same sequence, the figures for `Cc1cccc2sc(OC3CCN(C(=O)Cn4cnc5ccccc5c4=O)CC3)nc12` were 9% and -1.29.
Taken in the same sequence, the figures for `Cc1ccc(-c2csc(NC(=O)Cc3c(C)noc3C)n2)c(C)c1` were -1% and 0.08.
Turning to `CCN(CC(=O)Nc1ccc(OC)cc1)C(=O)c1cc(-c2cccs2)nc2c1c(C)nn2C`, the “% Inhibition” value came to 15% and the Z score was -1.94.
Consider `O=C(C#Cc1ccc2c(c1)OCO2)N1CC2CC=CCC2C1` (centres undefined), for which the “% Inhibition” value is given as -4% and the Z score was 0.57.
For `Cc1cc(C(=O)N(CCN2CCOCC2)c2nc3c(C)cc(Cl)cc3s2)c(C)o1`, the “% Inhibition” value is -13% and the Z score is on record as 1.96.
Taken in the same sequence, the figures for `OCCC1CCCN(C2C=CCCC2)C1` (centres undefined) were 4% and -0.42.
Taken in the same sequence, the figures for `CC(NC(=O)C1CCCN(C(=O)c2ccncc2)C1)C(=O)NCc1ccccc1` (centres undefined) were -5% and 1.06.
Taken in the same sequence, the figures for `COCC(=O)Nc1cc(C(=O)N(CC2CC2)C[C@H]2CCCO2)c2c(c1)ncn2CCc1ccccc1` were 6% and -1.16.
With `CC(C)[C@H]1CC[C@H](C(=O)N2CCn3cnnc3[C@@H]2C)CC1`, the “% Inhibition” value is -8% and the Z score came to 1.31.
For `CN(C(=O)c1ccccc1Oc1ccccc1)c1ccccc1`, in that order: 6% and -0.68.
For `O=C(Nc1nc(C(F)(F)F)cs1)c1ccc(-n2cc(Br)cn2)nn1`, in that order: -13% and 1.58.
Taken in the same sequence, the figures for `O=C(c1nnc(-c2cc(S(=O)(=O)NC3CCCCCCC3)c[nH]2)o1)N1CCCC1` were -12% and 1.31.
